Data reported in PubChem BioAssay AID686979 (National Center for Advancing Translational Sciences (NCATS), 2013).
In all, about 420,000 compounds went through this assay and about 50,000 (12%) were called active. Inconclusive results, whose numbers are uncertain, are shown with a selection of clear calls. The call rests on the fitted dose curve; in most records, active means well fitted inhibition curve with a large enough effect; inconclusive means small, poorly fitted or top-dose-only effect; inactive means flat fitted curve, though single readings scatter. Potencies of inconclusive entries are left out as doubtful fits.

Assay: qHTS for Inhibitors of human tyrosyl-DNA phosphodiesterase 1 (TDP1): qHTS in cells in presence of CPT; further: nearly all actives have a fitted effect of over 55% in size
Conditions: chicken DT40 Tdp1-/-;hTDP1 cells + 20 nM CPT, ATP luminescence, 48 h; activity change, negative = growth inhibition: at 46.2 µM (top of the series) unless noted
Method in brief: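 Chicken DT40 Tdp1-/- cells complemented with human TDP1, 400 cells/well, exposed to compounds plus 20 nM camptothecin for at least 48 h at 37 C; viability read as ATP content by CellTiter-Glo luminescence.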
On the % scale 0 is the no-effect control and ±100 the full control effect; potency means the concentration at half of the fitted maximal effect; tags describe the fitted curve by direction and shape.

Structure (SMILES) | activity change, negative = growth inhibition | Potency
C=CCN1C(=O)C2C(C(=O)NCc3ccccc3)C3(C)C=CC2(O3)C1C(=O)NC(C)(C)C (stereo not given) | inactive: -9.44% | –
Cc1ccc(S(=O)(=O)N(C)C)cc1NC(=O)c1cc(C(C)(C)C)nn1Cc1ccccc1 | – | active: 23.1 µM
CCOC(=O)c1ccc(NC(=O)CC2C(=O)N(c3ccc(C)cc3)C(=O)N2C2CCCC2)cc1 (stereo not given) | – | inconclusive [inhibitor, single point]
CCCCN(CCCC)CCNC(=O)CN1C(=O)COc2ccc(S(=O)(=O)N3CCC(C)CC3)cc21 | – | inconclusive [inhibitor, single point]
OC[C@H]1O[C@@H](c2nc(-c3cccc4ccccc34)no2)[C@H](O)[C@@H]1O | – | inconclusive [inhibitor, partial curve]
CC1CCN(S(=O)(=O)c2cccc(C(=O)NC3CCCCC3)c2)CC1 | inactive: -20.2% | –
C=CC[C@@H](CC(=O)N[C@@H](CO)Cc1ccccc1)C(=O)N[C@H](C)COC(=O)[C@@H](CC=C)Cc1ccc(F)cc1 | inactive: -24.7% | –
CCOC(=O)c1nc2cc3n(c(C)c-2c1C)C(C)C(C)=C3C (stereo not given) | – | inconclusive [inhibitor, single point]
CCS(=O)(=O)c1nc(S(=O)(=O)c2ccc(C)cc2)c(NCC(C)C)s1 | – | inconclusive [inhibitor, single point]
Cc1ccccc1-n1nnnc1SCC(N)=O | inactive: 16.9% | –
COc1ccc(C(=O)c2cc3cccc(OC)c3o2)cc1 | inactive: -21.9% | –
COc1cc(N2CCCC2)c(OC)cc1/C=C(/C#N)c1cccc(Br)c1 | – | inconclusive [inhibitor, single point]
CCOC(=O)c1ccc(NC(=O)CSc2nc(-c3cccs3)cc(C(F)(F)F)c2C#N)cc1 | – | inconclusive [inhibitor, single point]
COC(=O)CN1C(=O)CSc2ccc(S(=O)(=O)Nc3c(C)cc(C)cc3C)cc21 | – | inconclusive [inhibitor, single point]
CC(C)(C)c1ccc(C(=O)/C(C#N)=C/c2cccs2)cc1 | inactive: -1.57% | –
CN(CC(=O)Nc1ccc(F)cc1)C(=O)CCc1ccccc1 | inactive: 1.97% | –
O=C1C(c2ccccc2)SC(=Nc2ccccc2)N1S(=O)(=O)c1ccccc1 (stereo not given) | inactive: -6.71% | –
CCCCOc1ccc(C2(C)NC(=O)NC2=O)cc1 (stereo not given) | – | inconclusive [inhibitor, single point]
O=C(Nc1ccc2c(c1)OCO2)c1cnc2n(c1=O)CCS2 | – | inconclusive [inhibitor, full curve, poor fit]
Cn1c(SCC(=O)Nc2ccc(N3CCOCC3)c(Cl)c2)nnc1-c1ccccc1 | – | inconclusive [inhibitor, full curve, poor fit]
